The values below come from PubChem BioAssay AID1745853 (National Center for Advancing Translational Sciences (NCATS), 2022).

Common to all, as to assay: Primary Screen for Target Class Profiling of Small Molecule Inhibitors of Methyltransferases
The target in test [1] is Glycine N-methyltransferase (Homo sapiens) (UniProt Q14749). The following applies: purified enzyme, MTase-Glo SAH luminescence; measured here: GNMT inhibition; at 40 µM; stronger effect = lower value. The method, boiled down: (§1)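 Each enzyme was reacted with SAM and its substrate, with compounds tested once at 40 uM; SAH formed was read by MTase-Glo luminescence.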
For test [2], the target named is Guanidinoacetate N-methyltransferase (Homo sapiens) (UniProt Q14353). The following applies: purified enzyme, MTase-Glo SAH luminescence; measured here: GAMT inhibition; at 40 µM; stronger effect = lower value. Put shortly: as §1
In test [3] the target is Histamine N-methyltransferase (Homo sapiens) (UniProt P50135). Conditions: purified enzyme, MTase-Glo SAH luminescence; measured here: HNMT inhibition; at 40 µM; stronger effect = lower value. Put shortly:
as §1

Test [4] has as its target Nicotinamide N-methyltransferase (Homo sapiens) (UniProt P40261). The following applies: purified enzyme, MTase-Glo SAH luminescence; measured here: NNMT inhibition; at 40 µM; stronger effect = lower value. Put shortly:
as §1

Test [5] deals with Phenylethanolamine N-methyltransferase (Homo sapiens) (UniProt P11086). Conditions: purified enzyme, MTase-Glo SAH luminescence; measured here: PNMT inhibition; at 40 µM; stronger effect = lower value. Put shortly: as §1

This is one part of the list. Shown are side measurements of this screen, not its main read-out; they come without a call.
% is scaled to controls: 0 for no effect and ±100 for the full control effect.

Take `Cc1ccc(C)c(CSc2nnc3n(C)c(=O)c4ccc(C(=O)NC5CCCC5)cc4n23)c1`: the activity change, negative = inhibition in test [1] was -2.11%; in test [2] it was 1.08%; in test [3], 8.49%; in test [4], 6.78%; in test [5] it was 0.503%.
The like results for `Cc1nc(C2CCN(C(=O)[C@H]3CNC[C@H](C(=O)N4CCCC4)C3)CC2)n[nH]1` were, in that order, -2.84%, -1.7%, -1.32%, -1.08% and 1.86%.
`C[C@@H](NCCCc1cccc(C(F)(F)F)c1)c1cccc2ccccc12`: the activity change, negative = inhibition is 8.78% in test [2], -11.3% in test [4] and -2.04% in test [5].
As to `CC(=O)Nc1cccc(-n2c(=O)n(C3CC3)c(=O)c3c(Nc4ccc(I)cc4F)n(C)c(=O)c(C)c32)c1`, the activity change, negative = inhibition in test [1] is -6.38%; in test [2] it was 5.13%; in test [3], 7.92%; in test [4], -12.7%; in test [5], 6.05%.
For `COc1cccc(CNC(=O)N2Cc3c(sc4c3CCCC4)-n3cccc3C2c2ccccc2)c1` (configuration not stated), the activity change, negative = inhibition is -9.72% in test [1]; -3% in test [2]; 2.09% in test [3]; -18.5% in test [4]; -2.56% in test [5].
As to `Cc1sc2cc(C(=O)NC(C)C)[nH]c2c1CN1CCCCC1`, the activity change, negative = inhibition in test [1] was -1.99%; in test [2], -0.485%; in test [3], -4.13%; in test [4], -4.55%; in test [5] it was -6.9%.
For `CC1CCC(NC(=O)C2(C)Cn3c(cc4occc43)C(=O)N2Cc2cccc(Cl)c2)CC1` (configuration not stated), in that order: -3.35%, 3.1%, -5.22%, -9.05% and -8.94%.
As for `Cc1cc2c(cc3n2CC(C)(C(=O)NC2CCCCCC2)N(C(C)CCc2ccccc2)C3=O)o1` (configuration not stated), the activity change, negative = inhibition is 1.32% in test [1]; 0% in test [2]; 6.87% in test [3]; -3.06% in test [4]; -1.05% in test [5].
The like results for `Cc1ccc(Cn2c(=O)c3ccccc3n3c(=O)n(CC(=O)NCc4ccccc4Cl)nc23)cc1` were, in that order, 1.69%, 1.98%, 2.47%, -0.888% and 0.911%.
For `COc1ccc(C(=O)N2CCC(n3c(C)cnc3-c3ccncc3)C2)c(OC)c1` (configuration not stated), in that order: -3.56%, -4.22%, -0.898%, -8.3% and -4.19%.
The like results for `COc1ccc(CN2CCN(C(=O)CCNC(=O)c3ccc(C(C)(C)C)cc3)CC2)cc1` were, in that order, -1.68%, 10.8%, 10.4%, -22.4% and 2.23%.
Take `O=C(CCc1conc1-c1ccc(F)cc1)NCC1CCCO1` (configuration not stated): the activity change, negative = inhibition in test [1] was -4.92%; in test [2] it was -3.67%; in test [3], -1.61%; in test [4], -9.11%; in test [5] it was -6.1%.
The like results for `Cc1nc2c(C(F)(F)F)cccc2nc1-c1ccc(-c2cccc(S(C)(=O)=O)c2)cc1` were, in that order, -3.23%, -16.7%, 3.4%, -20.8% and -10.3%.
The like results for `Cc1ccc(CSc2nnc3n(Cc4ccccc4)c(=O)c4ccccc4n23)cc1` were, in that order, 3.53%, 4.3%, 3.48%, -2.67% and 1.23%.
Regarding `CC1CCC(NC(=O)C2(C)Cc3ccccc3C(=O)N2Cc2cccs2)CC1` (configuration not stated), the activity change, negative = inhibition in test [1] was -3.79%; in test [2], 2.44%; in test [3] it was -2.36%; in test [4], -4.88%; in test [5], -6.75%.
For `CC1CCN(S(=O)(=O)N2CCC(C(=O)N3CCc4nc5cc[nH]n5c(=O)c4C3)CC2)CC1`, in that order: -3.99%, 1.44%, -0.27%, -10.9% and -21.5%.
For `Cc1ccn(CCC(=O)NCc2cccnc2Oc2ccc(F)c(F)c2)n1`, in that order: -1.61%, -3.92%, -3.69%, -3.45% and 5.38%.
As to `CC[N+](C)(C)c1cccc(O)c1`, the activity change, negative = inhibition is 2.02% in test [1]; 7.29% in test [2]; -20.7% in test [3]; -7.84% in test [4]; -2.13% in test [5].
For `CC1(C)C=Cc2c(ccc3c2N=C2C(C)(C)[C@@H]4C[C@]56CCCN5C(=O)[C@@]4(C[C@]23O)NC6=O)O1`, in that order: 1.85%, 1.26%, 8.9%, -13.9% and 4.25%.
For the compound `CC(C)CCn1c(=O)c2ccccc2n2c(SCC(=O)NCc3ccc(Cl)cc3)nnc12`, the activity change, negative = inhibition in test [1] is 4.51%; in test [2], 0%; in test [3] it was 6.94%; in test [4] it was -0.608%; in test [5], 5.08%.
As for `CC1(C)CC[C@]2(C(=O)O)CC[C@]3(C)C(=CC[C@@H]4[C@@]5(C)C[C@@H](O)[C@H](O)C(C)(C)[C@@H]5CC[C@]43C)[C@@H]2C1`, the activity change, negative = inhibition in test [2] was 2.94%; in test [4], -14.3%; in test [5], 3.61%.
In the case of `CC1(CO)CCCC2(C)C3COC(=O)C3=CC(O)C12` (configuration not stated), the activity change, negative = inhibition in test [1] was -3.59%; in test [2], -4.25%; in test [3], 2.76%; in test [4] it was -14.1%; in test [5] it was -12.9%.
For `COc1ccccc1-c1nnc2n(Cc3ccccc3)c(=O)c3ccccc3n12`, in that order: -9.3%, 2.19%, -7.35%, -7.36% and -4.77%.
Turning to `OC[C@H](Cc1ccccc1)Nc1nc(Oc2ccc3c(c2)CCC3)nc2c1ncn2Cc1ccc(-c2ccccc2)cc1`, the results for the activity change, negative = inhibition in test [2], in test [4] and in test [5] were -28%, -57.9% and -32.7%, respectively.
Regarding `CC1CCCCC1NC(=O)C1(C)Cn2c(nc3ccccc32)C(=O)N1CCc1ccc(Cl)cc1` (configuration not stated), the activity change, negative = inhibition in test [1] is -1.82%; in test [2], 3.9%; in test [3] it was 2.84%; in test [4], -5.65%; in test [5], -6.81%.
The like results for `CCc1ccc(CN2C(=O)c3c(C(=O)OC)ncn3CC2(C)C(=O)NC2CCCCCC2)cc1` (configuration not stated) were, in that order, 0.605%, 0%, 0.073%, -1.17% and 2.23%.
The like results for `C=CC(C)(C)c1[nH]c2ccccc2c1C[C@@H]1NC(=O)[C@H](Cc2c[nH]c3ccccc23)NC1=O` were, in that order, -0.476%, -3.6%, 4.53%, -15% and 1.87%.
The like results for `COc1ccc(CNc2nc3c(-c4cccc(C)c4)nnn3c3ccccc23)cc1` were, in that order, -5.52%, 0%, 1.01%, -1.04% and -4.96%.
For `CC(C)CNC(=O)c1ccc2c(=O)n(CC(C)C)c3nn(CC(=O)NCc4ccccc4)c(=O)n3c2c1`, the activity change, negative = inhibition was -2.04% in test [1]; 0.02% in test [2]; 4.84% in test [3]; -0.523% in test [4]; 2.84% in test [5].
As for `O=C(O)c1c[nH]c2c(ccc3ccccc32)c1=O`, the activity change, negative = inhibition in test [2] was 2.81%; in test [4], -8.25%; in test [5] it was 5.27%.
Turning to `O=c1n(CCN2CCCC(N[S+](=O)([O-])c3ccccc3)C2)nc2n1CCCC2` (configuration not stated), the activity change, negative = inhibition was -0.128% in test [1]; 1.46% in test [2]; 3.8% in test [3]; -4.1% in test [4]; 2.1% in test [5].
Regarding `CC(C)CCn1c(=O)c2ccccc2n2c(=O)n(CC(=O)Nc3cccc(F)c3)nc12`, the activity change, negative = inhibition was 0.881% in test [1]; 0% in test [2]; 6.1% in test [3]; -3.36% in test [4]; 2.55% in test [5].
For `Cc1ccccc1N1C(=O)c2cc3occc3n2CC1(C)C(=O)NC1CCCCCCC1` (configuration not stated), in that order: 0.423%, 0%, 5.45%, 1.36% and 0.528%.
The like results for `CCCn1c(=O)c2ccc(C(=O)NCC(C)C)cc2n2c(=O)n(CC(=O)NCc3ccccc3)nc12` were, in that order, 3.97%, 0.783%, 4.64%, -1.79% and 1.31%.
As to `CCOC(=O)C1CCN(S(=O)(=O)c2ccc(Cl)c(-c3nnc(-c4ccccc4)o3)c2)CC1`, the activity change, negative = inhibition turned out to be 10.7% in test [1]; 1.88% in test [2]; 11.2% in test [3]; 6.22% in test [4]; 9.31% in test [5].
For `COc1ccccc1C(=O)N1CCC2(C1)NC(=O)c1ccccc1CO2` (configuration not stated), in that order: -10.7%, -9.9%, -3.31%, -13.5% and 8.97%.
On to `Cc1ccc(CN2C(=O)c3cc(-c4ccco4)nn3CC2(C)C(=O)NC2CCCCCC2)cc1` (configuration not stated), for which the activity change, negative = inhibition in test [1] was 0.927%; in test [2], 4.98%; in test [3], 0.799%; in test [4] it was -0.149%; in test [5] it was -2.67%.
Regarding `COCCN1C(=O)c2ccccc2C(C(=O)Nc2ccc3[nH]ccc3c2)C12CCCC2` (configuration not stated), the activity change, negative = inhibition is -6.93% in test [1]; -3.1% in test [2]; -3.2% in test [3]; -8.45% in test [4]; -7.08% in test [5].
